The supplement of paper PMC10126150
Values marked as one replicate rest on one cluster of the flow cell; about a third of the high ones do not repeat.

System: ATP
Assay: switch fluorescence ratio, 500 uM ATP over buffer (Cy3 cluster intensity, sum of 5 cycles each) (fold (ratio)); higher = stronger signal-on switching upon ATP binding; sequences stand for … in TCGTCGGCAGCGTCAGATGTGTATAAGAGACAGTTTTTTTTTTTTTTTTTTTTTTTTT…TC
Settings: aptamer strand: ATP DNA aptamer (quencher-CACCTGGGGGAGTATTGCGGAGGAAGG + anchor), 100 nM annealed; ATP concentration: 500 uM; one replicate
Procedure, shortened: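 Values give the fluorescence ratio for each switch-domain sequence, averaged from per-cluster ratios of summed target-cycle to summed buffer-cycle Cy3 intensity. The Cy3-labelled switching-strand clusters sat on a modified Illumina MiSeq flow-cell, were annealed to 100 nM quencher-labelled ATP aptamer, and were imaged in selection buffer, then after 15 min with 500 uM ATP at 22 °C. Five cycles ran with NaOH stripping and re-annealing between them, and clusters outside 100-1000 RFU were excluded.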
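Also: ATP exposure 15 min at 22 °C before imaging.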

Sequence: TGAAAATAAC
- switch fluorescence ratio: 1.03

Sequence: ATTATGCTCG
- switch fluorescence ratio: 1.08

Sequence: TGGTAAACC
- switch fluorescence ratio: 1.08

Sequence: GTCGCCTTTA
- switch fluorescence ratio: 1.02

Sequence: AAGATGATTT
- switch fluorescence ratio: 1.03

Sequence: AGACCTATGT
- switch fluorescence ratio: 0.976

Sequence: CGAGATCACA
- switch fluorescence ratio: 0.937

Sequence: AAGTCCTCAT
- switch fluorescence ratio: 1

Sequence: CGGAACAAAC
- switch fluorescence ratio: 2.97

Sequence: GAAAGGCGTG
- switch fluorescence ratio: 1.01

Sequence: ACTATCTAGA
- switch fluorescence ratio: 1.02

Sequence: CACTGTGTGT
- switch fluorescence ratio: 0.99

Sequence: AATTGCAACT
- switch fluorescence ratio: 1

Sequence: ACCTGAACTT
- switch fluorescence ratio: 1.08

Sequence: GGTGCGCTGT
- switch fluorescence ratio: 1.04

Sequence: CGATCATGAA
- switch fluorescence ratio: 1.03

Sequence: GGCGGGGTTC
- switch fluorescence ratio: 0.992

Sequence: TTATAGGACT
- switch fluorescence ratio: 1.04

Sequence: AAAGTTGTAG
- switch fluorescence ratio: 0.974

Sequence: ACACGAGGTG
- switch fluorescence ratio: 1.15

Sequence: AGTGTATTAC
- switch fluorescence ratio: 0.996

Sequence: CTATAGTGTC
- switch fluorescence ratio: 1.03

Sequence: GGTGCCGTTA
- switch fluorescence ratio: 1

Sequence: TTCTTGCGTG
- switch fluorescence ratio: 1

Sequence: GAATAGAGAC
- switch fluorescence ratio: 0.964

Sequence: CATATCTAGT
- switch fluorescence ratio: 0.978

Sequence: TAGGACTGGA
- switch fluorescence ratio: 1.04

Sequence: TCAGACACGT
- switch fluorescence ratio: 1.21

Sequence: CACGGATCCC
- switch fluorescence ratio: 0.986

Sequence: CCTGTCCTGC
- switch fluorescence ratio: 1.07

Sequence: TGTCGTCCAT
- switch fluorescence ratio: 0.968

Sequence: AAATACATGG
- switch fluorescence ratio: 0.986

Sequence: TGACGTATGC
- switch fluorescence ratio: 1.22

Sequence: GGTTTAGTGT
- switch fluorescence ratio: 0.96

Sequence: GAACTAAGGT
- switch fluorescence ratio: 1

Sequence: CTTTCAGGTT
- switch fluorescence ratio: 1.05

Sequence: GCAGTTTCGG
- switch fluorescence ratio: 0.973

Sequence: TAAGGTCGCT
- switch fluorescence ratio: 0.991

Sequence: CAACGGTTC
- switch fluorescence ratio: 1.06

Sequence: ACAAGGC
- switch fluorescence ratio: 1.02

Sequence: TCGTGACCCG
- switch fluorescence ratio: 1.05

Sequence: AATATGAAC
- switch fluorescence ratio: 1.04

Sequence: AGGAAATTAC
- switch fluorescence ratio: 1.09

Sequence: ATGGATTCAC
- switch fluorescence ratio: 0.992

Sequence: GTAATTCCGA
- switch fluorescence ratio: 1

Sequence: CAAGTGGGAA
- switch fluorescence ratio: 1.01

Sequence: GCTATCTTG
- switch fluorescence ratio: 0.985

Sequence: ATGCGGGCCG
- switch fluorescence ratio: 0.924

Sequence: TGTATAGCGG
- switch fluorescence ratio: 1.02

Sequence: AGAGCCTCAG
- switch fluorescence ratio: 1

Sequence: ATATGCCACG
- switch fluorescence ratio: 1.01

Sequence: ATAACTGACG
- switch fluorescence ratio: 1.07

Sequence: TGATGGCGGC
- switch fluorescence ratio: 1.05

Sequence: TGTATGAACG
- switch fluorescence ratio: 1.03

Sequence: TTTAGTGAGA
- switch fluorescence ratio: 1.02

Sequence: TACTTATGTC
- switch fluorescence ratio: 0.992

Sequence: TCCTGTGACT
- switch fluorescence ratio: 0.997

Sequence: GGTGGACTCC
- switch fluorescence ratio: 1.01

Sequence: CTATGACAAC
- switch fluorescence ratio: 0.966

Sequence: ATAGCTAATT
- switch fluorescence ratio: 1.01

Sequence: TTAGCACATG
- switch fluorescence ratio: 1.03

Sequence: CCAAGCTCGA
- switch fluorescence ratio: 1.11

Sequence: TGACGGCAA
- switch fluorescence ratio: 1.26

Sequence: TTTCTGACGA
- switch fluorescence ratio: 2.16

Sequence: TTACTCAATT
- switch fluorescence ratio: 1.05

Sequence: CCAATTGAGT
- switch fluorescence ratio: 1.07

Sequence: TAGCAGATCT
- switch fluorescence ratio: 1

Sequence: TATCTGGAGC
- switch fluorescence ratio: 1.02

Sequence: CAGTTTAACG
- switch fluorescence ratio: 0.911

Sequence: GGCTATGCTT
- switch fluorescence ratio: 0.992

Sequence: GTCAATGGCT
- switch fluorescence ratio: 1.01

Sequence: GACATAGCCG
- switch fluorescence ratio: 1.02

Sequence: ACACAATGTA
- switch fluorescence ratio: 0.998

Sequence: ATGGCTGTTC
- switch fluorescence ratio: 0.988

Sequence: GTCGGAGTTC
- switch fluorescence ratio: 0.982

Sequence: TACGAAGTTA
- switch fluorescence ratio: 0.978

Sequence: GATGATCGCA
- switch fluorescence ratio: 0.977

Sequence: TGTATAAATA
- switch fluorescence ratio: 0.975

Sequence: CATGTCTAAG
- switch fluorescence ratio: 0.997

Sequence: AGATCAACCG
- switch fluorescence ratio: 1

Sequence: TTTGCTAAGC
- switch fluorescence ratio: 1.02

Sequence: GTGTTACTCC
- switch fluorescence ratio: 1.36

Sequence: GAGTTAGAGA
- switch fluorescence ratio: 0.976

Sequence: TGAACTTCCT
- switch fluorescence ratio: 1.14

Sequence: AGGTTACCTT
- switch fluorescence ratio: 1.04

Sequence: GAGATTCAGG
- switch fluorescence ratio: 0.984

Sequence: TCTTTCAGCT
- switch fluorescence ratio: 1.03

Sequence: CAAATTAGAA
- switch fluorescence ratio: 0.98

Sequence: AGGTCGGTCG
- switch fluorescence ratio: 0.984

Sequence: GACAATGAAG
- switch fluorescence ratio: 0.974

Sequence: GAAGGATGGG
- switch fluorescence ratio: 0.954

Sequence: TCCGACTGTG
- switch fluorescence ratio: 1.11

Sequence: TGAAAGACCG
- switch fluorescence ratio: 1.05

Sequence: AGCCTTGCGG
- switch fluorescence ratio: 1.03

Sequence: CAGGCTACTT
- switch fluorescence ratio: 1

Sequence: GCGCCCTCTT
- switch fluorescence ratio: 0.967

Sequence: TCCTCGGGAG
- switch fluorescence ratio: 1.08

Sequence: AAAAGATCGG
- switch fluorescence ratio: 1.02

Sequence: CGGGTTGCTA
- switch fluorescence ratio: 0.999

Sequence: ACGGTCCCGG
- switch fluorescence ratio: 0.981
